{"source": "ChEMBL document CHEMBL4888484", "about": "“Replenishing the malaria drug discovery pipeline: Screening and hit evaluation of the MMV Hit Generation Library 1 (HGL1) against asexual blood stage Plasmodium falciparum ,using a nano luciferase reporter read-out” (2022)", "note": "Out of some 150,000 compounds screened, about 540 (0.36%) showed an effect of 50% or more. The list shows a part of the results.", "data": [{"system": "Plasmodium falciparum", "test": "Primary screen in NF54 nanoGlo assay, in single point, at 2uM, 72h; a lower Z score goes with more inhibition", "format": "functional, Erythrocyte", "settings": "timepoint 72 hour", "units": {"% Inhibition": "%"}, "values": [{"smiles": "COc1cnccc1-c1noc(CCCc2ncc(C)o2)n1", "% Inhibition": -10, "Z score": 1.28}, {"smiles": "CCc1nccn1CCNC(=O)Nc1cccc2nn(C)nc12", "% Inhibition": 2, "Z score": -0.31}, {"smiles": "c1csc(-c2cc(CN3CCCC[C@@H]3Cn3cncn3)no2)c1", "% Inhibition": -9, "Z score": 1.35}, {"smiles": "CC(Cn1cccn1)NC(=O)C1CCCO1", "note": "(centres undefined)", "% Inhibition": -16, "Z score": 1.38}, {"smiles": "O=C(NC1CCN(c2ccccc2C(=O)N2CCCCC2)CC1)c1ccco1", "% Inhibition": 3, "Z score": -0.59}, {"smiles": "N#Cc1ccc(OC[C@H]2C[C@@H](O)C2)cc1F", "% Inhibition": 5, "Z score": -0.62}, {"smiles": "O=C(Cn1cc(C(=O)c2ccco2)c2ccccc21)NC1CCCCC1", "% Inhibition": 3, "Z score": -0.37}, {"smiles": "Cc1nc(C)c(F)c(N2CCN(Cc3ccnn3C)CC2)n1", "% Inhibition": -9, "Z score": 1.53}, {"smiles": "C=CCn1cc(CN(CC)Cc2nc(CC)no2)c(C)n1", "% Inhibition": -6, "Z score": 0.82}, {"smiles": "CCNc1nc(CN(CCN2CCOCC2)CC(=O)OC)cs1", "% Inhibition": 19, "Z score": -2.46}, {"smiles": "CCn1cc(-c2c(-c3ccccc3)ncn2Cc2ccc(CO)cc2)cn1", "% Inhibition": 3, "Z score": -0.26}, {"smiles": "COc1ccc(-n2cccn2)cc1S(=O)(=O)N[C@H]1COC[C@@H]1OC", "% Inhibition": 1, "Z score": -0.11}, {"smiles": "O=C(CCCn1cnnn1)N1CCc2[nH]c3ccc(OC(F)(F)F)cc3c2C1", "% Inhibition": 6, "Z score": -0.69}, {"smiles": "COc1nn(C)cc1CNC(=O)C1(c2ccccc2C)CCCC1", "% Inhibition": -5, "Z score": 0.85}, {"smiles": "Cc1cnc(CCNS(=O)(=O)Cc2cc(Cl)cc(Cl)c2)s1", "% Inhibition": 0, "Z score": 0.06}, {"smiles": "NS(=O)(=O)c1cccc(Cl)c1Cl", "% Inhibition": 2, "Z score": -0.33}, {"smiles": "O=C(Cc1c(F)cccc1Cl)N1CC(Nc2cccnn2)C1", "% Inhibition": -9, "Z score": 1.06}, {"smiles": "Cc1cc(C(=O)N[C@@H](Cn2nccn2)c2ccccc2)no1", "% Inhibition": -10, "Z score": 1.62}, {"smiles": "Cc1nc(C)c(C(=O)N2CC3(CCCCC3)[C@@H]2C(C)C)o1", "% Inhibition": -5, "Z score": 0.75}, {"smiles": "O=C(Cc1ccc(F)cc1)N1CCN(c2cc(C(F)(F)F)ncn2)CC1", "% Inhibition": 2, "Z score": -0.35}, {"smiles": "COC(=O)c1sc(=S)n(Cc2ccccc2)c1C", "% Inhibition": -11, "Z score": 1.23}, {"smiles": "CN(C)C(=O)N(CCN1CCCCC1)[C@H]1CCN(C(=O)CC2CCCCC2)C1", "% Inhibition": -5, "Z score": 0.61}, {"smiles": "COCc1nc(N2CC(O)C2)c2c(-c3ccccc3)csc2n1", "% Inhibition": 6, "Z score": -0.7}, {"smiles": "O=C(Nc1ccccc1)N[C@H]1CCc2[nH]cnc2C1", "% Inhibition": 1, "Z score": -0.17}, {"smiles": "CC(C)(C)c1ccc(-n2ncc3c2CCC[C@@H]3NCc2ccc(CO)o2)cc1", "% Inhibition": -19, "Z score": 2.83}, {"smiles": "CC1CCCCC1CC(=O)N1CCC2(CCCN2C)C1", "note": "(centres undefined)", "% Inhibition": -5, "Z score": 1.05}, {"smiles": "CCn1c2c(c(=O)n3ncc(C(=O)N4CCN(c5ccc(F)cc5)CC4)c13)CNCC2", "% Inhibition": -7, "Z score": 0.93}, {"smiles": "CC1CCN(S(=O)(=O)N2CCN(CC(=O)Nc3cc(Cl)cc(Cl)c3)CC2)CC1", "% Inhibition": -1, "Z score": 0.25}, {"smiles": "COc1ccc(C(C)C)cc1CN1CC[C@@H](O)C[C@H]1C(=O)O", "% Inhibition": -12, "Z score": 1.57}, {"smiles": "Oc1cccc(CN2CCC3(CC2)C[C@H](c2ccccc2)CN(C2CC2)C3)c1", "% Inhibition": 76, "Z score": -2.68}, {"smiles": "O=C(c1ccc2nc(-c3ccccc3)cn2c1)N1CCCCC1", "% Inhibition": -1, "Z score": 0.12}, {"smiles": "CCc1nn(C)cc1CNc1cc(Br)cc(C)c1NC(=O)OC(C)(C)C", "% Inhibition": 2, "Z score": -0.21}, {"smiles": "Cc1ccc(-c2nc(NCc3ccco3)n(C(=O)CCc3ccccc3)n2)cc1", "% Inhibition": -14, "Z score": 1.54}, {"smiles": "O=C(NC(Cc1ccccc1)[C@H]1C[C@H](O)C1)c1cnc[nH]1", "note": "(some centres undefined)", "% Inhibition": -12, "Z score": 1.63}, {"smiles": "N=C(NC(=O)c1ccccc1)Nc1nc2ccccc2s1", "% Inhibition": -11, "Z score": 0.96}, {"smiles": "Brc1ccc(-c2ccc(Oc3nccn4nnnc34)cc2)cc1", "% Inhibition": -10, "Z score": 1.12}, {"smiles": "C[C@H]1CN(C)CCN1CCc1ccc2c(c1)CCO2", "% Inhibition": 3, "Z score": -0.33}, {"smiles": "Cc1ccc(CNC(=O)c2ccc3c(c2)C(=O)N(C[C@H]2CCCO2)C3=O)s1", "% Inhibition": -5, "Z score": 0.72}, {"smiles": "COc1ccc2c(c1)N(S(=O)(=O)CCC1CCC1)CCC2", "% Inhibition": -11, "Z score": 1.73}, {"smiles": "O=C(Nc1nc2cccc(Cl)c2o1)c1cccc(F)c1", "% Inhibition": 89, "Z score": -8.47}, {"smiles": "COCc1nc(C)c(CNC(=O)c2cc(C3CC3)no2)s1", "% Inhibition": 15, "Z score": -2}, {"smiles": "CN(CCN1CCOC(C2CCCO2)C1)Cc1ccc(F)cc1", "note": "(centres undefined)", "% Inhibition": -4, "Z score": 0.46}, {"smiles": "COc1ccccc1N(C)CC(=O)N1CCC(c2ccccc2)=N1", "% Inhibition": 4, "Z score": -0.47}, {"smiles": "O=S(=O)(NCCn1c(-c2ccccc2)nc2cccnc21)c1ccccc1Cl", "% Inhibition": -8, "Z score": 1.07}, {"smiles": "CN1C[C@H](NC(=O)c2ccc(F)cc2F)C[C@H]1CO", "% Inhibition": -2, "Z score": 0.39}, {"smiles": "COc1cccc([C@@H]2CCN2C(=O)NCC2(Cn3ccnc3C)CC2)c1", "% Inhibition": 16, "Z score": -2.14}, {"smiles": "O=C(NC[C@H]1O[C@@H](CO)[C@@H](O)[C@H]1N1CCN(c2cccc(C(F)(F)F)c2)CC1)Nc1ccc(OC(F)(F)F)cc1", "% Inhibition": 18, "Z score": -2.06}, {"smiles": "Cc1ccc2c(c1)CCCN2C(=O)CCc1c(C)noc1C", "% Inhibition": -7, "Z score": 1.01}, {"smiles": "CCOC(=O)[C@H](CO)Nc1ncnc2onc(C)c12", "% Inhibition": 1, "Z score": -0.25}, {"smiles": "Cc1ccc(-c2cccc(C(=O)NCc3cc4n(n3)CCCNC4)c2)c(C)n1", "% Inhibition": -18, "Z score": 1.6}, {"smiles": "CN(C)CCNC(=O)CCc1nnc2c3cc(-c4ccc(Cl)cc4)nn3ccn12", "% Inhibition": 2, "Z score": -0.22}, {"smiles": "Cc1cc(C(=O)NCCCn2ccc3cccnc32)no1", "% Inhibition": -15, "Z score": 2.26}, {"smiles": "C#CCNC(=O)c1ccc(C(N)=O)nc1", "% Inhibition": -37, "Z score": 4.31}, {"smiles": "Nc1c2c(-c3ccccc3)nc(NCc3ccccn3)nc2nn1Cc1ccccc1", "% Inhibition": 2, "Z score": -0.21}, {"smiles": "CC(=O)N1CCC[C@](c2nnnn2CCC(C)C)(N2CCC(Cc3ccccc3)CC2)C1", "% Inhibition": 2, "Z score": -0.43}, {"smiles": "CCCN1CCCn2nc(CNc3nc(C)cc(C)c3C#N)cc2C1", "% Inhibition": -1, "Z score": 0.09}, {"smiles": "O=C(Cc1cnc[nH]c1=O)N1CC[C@@]2(CCCN(C3CCCC3)C2=O)C1", "% Inhibition": 1, "Z score": -0.17}, {"smiles": "Cn1cc([C@H]2CCCN(C(=O)Nc3cccs3)C2)cn1", "% Inhibition": -2, "Z score": 0.31}, {"smiles": "CCCc1nnc(NC(=O)c2sc(COc3ccc(C)c(C)c3)nc2C)s1", "% Inhibition": -4, "Z score": 0.73}, {"smiles": "CCC(=O)N1CCCN(C2=NS(=O)(=O)C(c3ccc(C)cc3)=C2C)CC1", "% Inhibition": -9, "Z score": 1.44}, {"smiles": "O=C(NC1CCOCC1)c1ccc(Br)cn1", "% Inhibition": -14, "Z score": 2}, {"smiles": "Cc1cccc(CCC(=O)N2CCN[C@H](C)C2)c1", "% Inhibition": -7, "Z score": 0.96}, {"smiles": "CCN(C)C(=O)[C@H](C1CCCC1)N1CCN(C(=O)c2cccc(F)c2)CC1", "% Inhibition": -2, "Z score": 0.26}, {"smiles": "CC1CCCC(C)N1C(=O)c1cc2c([nH]c1=O)CCCC2=O", "note": "(centres undefined)", "% Inhibition": 1, "Z score": -0.13}, {"smiles": "O=C(NC1CCC(N2C(=O)CCC2=O)CC1)C1CC1C1CCCCC1", "note": "(centres undefined)", "% Inhibition": -7, "Z score": 0.72}, {"smiles": "CCCCN(CCO)CC(=O)NC1CCCC1", "% Inhibition": -8, "Z score": 1.04}, {"smiles": "O=C(NC1CCN(c2ccccc2C(=O)N2CCOCC2)CC1)c1ccco1", "% Inhibition": -7, "Z score": 1.29}, {"smiles": "C[C@H]1CCCCN1c1ncnc2onc(-c3cc(F)cc(F)c3)c12", "% Inhibition": 0, "Z score": -0.02}, {"smiles": "O=C(CN(C(=O)C1CC2CCC1O2)C1CC1)NC1CC1", "note": "(centres undefined)", "% Inhibition": 3, "Z score": -0.42}, {"smiles": "Cc1cc(F)ccc1N1CCC[C@H](NC(=O)c2csnc2C)C1=O", "% Inhibition": 39, "Z score": -5.25}, {"smiles": "N#CCCN(CC1CC1)S(=O)(=O)Cc1ccon1", "% Inhibition": -1, "Z score": 0.12}, {"smiles": "COc1ccc(CN2C[C@H]3CC[C@@H](O)[C@H]3C2)c(OC)c1", "% Inhibition": 7, "Z score": -0.69}, {"smiles": "N#Cc1ccccc1CN1CCN(CCO)[C@@H]2CS(=O)(=O)C[C@@H]21", "% Inhibition": -12, "Z score": 1.91}, {"smiles": "O=C(NCCc1cccnc1)c1cn2c(n1)[C@@H](c1ccccc1)N(C(=O)Cc1cccnc1)CC2", "% Inhibition": -2, "Z score": 0.33}, {"smiles": "CCn1cc(CN2CCC[C@@](F)(C(=O)NCC3CC3)C2)c(C)n1", "% Inhibition": -20, "Z score": 1.79}, {"smiles": "Cc1cccc(NC(=O)N(C)CCO)c1Br", "% Inhibition": -6, "Z score": 0.86}, {"smiles": "CCN(Cc1noc(C2CC2)n1)Cc1nc(-c2ccccc2)cs1", "% Inhibition": -13, "Z score": 1.67}, {"smiles": "COCCNC(=O)c1coc(CN2C(=O)COc3ccc(C(=O)COc4ccccc4)cc32)n1", "% Inhibition": -6, "Z score": 0.84}, {"smiles": "CCCNC(=O)c1cc2c(=O)[nH]c(C)cn2n1", "% Inhibition": -8, "Z score": 1.04}, {"smiles": "O=C(CCS(=O)(=O)c1ccccc1)N1CCC(c2cccs2)CC1", "% Inhibition": -7, "Z score": 1.03}, {"smiles": "CC1CCC(NC(=O)c2ccc3ncsc3c2)CC1", "note": "(centres undefined)", "% Inhibition": 7, "Z score": -1.06}, {"smiles": "c1ccc2c(c1)Cc1ccc(-c3csc(Nc4ccc5c(c4)OCCO5)n3)cc1-2", "% Inhibition": -8, "Z score": 1.08}, {"smiles": "CC(C)c1nnc(CCC(=O)N2CC[C@H]2c2cccc(F)c2)o1", "% Inhibition": 5, "Z score": -0.94}, {"smiles": "CC1=C(C(=O)NCc2cnn(C)c2)OCCO1", "% Inhibition": -15, "Z score": 1.85}, {"smiles": "O=C(NC(Cn1cccn1)c1ccccc1)C1CCCn2ncnc21", "note": "(centres undefined)", "% Inhibition": -8, "Z score": 0.98}, {"smiles": "O=S(=O)(Nc1cc(O)ccc1Cl)c1cnn2c1OCCC2", "% Inhibition": -2, "Z score": 0.18}, {"smiles": "Cc1ccc(CN(CC(=O)NC2CC2)Cc2ccccn2)o1", "% Inhibition": 2, "Z score": -0.23}]}]}
